Reference: patent US20100273740A1 (priority 2004, published 2010)

Assays:
[1] = tested on: varicella zoster virus; test: microbe, parasite or virus in culture
[2] = tested on: Urbani strain of SARS CoV; format: cell-based; settings: Vero cells

| SMILES | SI = Selectivity Index (IC50 Cell Growth divided by EC50) [1] | EC50 ([1]; Human alphaherpesvirus 3, Fibroblast, read-out: Effective Conc. (EC50) Against VZV) | SI = Selectivity Index (IC50 Cell Growth divided by EC50) [2] |
| --- | --- | --- | --- |
| CCCCCCCCCCOC(CNC(=O)CCCCCCCCC)COP(=O)([O-])OCC[N+](C)(C)C (stereo not drawn) [NHCOC9H19 OC9H18CH3 PC, 3-decanamido-2-decyloxypropyl-1-phosphocholine] | 156 | 0.48 µg/mL (≈ 0.872 µM) | – |
| CCCCCCCCCCCC(=O)NCC(COP(=O)([O-])OCC[N+](C)(C)C)OCCCC (stereo not drawn) [NHCOC11H23 OC3H6CH3 PC, 3-dodecanamido-2-butyloxypropyl-1-phosphocholine] | – | – | 13 |

In brackets after ≈: the same amount, converted by molar mass.
